# Counter-ions that a name gives are not always drawn. ± gives the standard deviation of the averaged measurements. Over roughly 1,300 compounds, “normalised cell viability” has its median near 1; the lowest 2% begin near 0.15. The list shows a part of the results.
# System: V-C8 + BRCA2 (BRCA2-proficient hamster cells)
# Assay: normalised cell viability (fraction of plate median); higher = more viable cells (less toxic)
# Conditions: 5 µM
# Procedure, shortened: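 Hamster V-C8 cells lacking BRCA2 and V-C8 cells with BRCA2 restored were seeded in 96-well plates. Library drugs (10 mM DMSO stocks) were added 24 h later at 5 μM in 100 μl medium, next to DMSO control wells, for 3 days (screen 1) or 6 days (screen 2). Cell viability was read by resazurin assay, median-plate normalised (modified robust per cent of sample), and triplicate wells were averaged.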
smiles,measurement,setting,value
CC(NC(C)(C)C)C(=O)c1cccc(Cl)c1 (stereo unspecified) [Bupropion hydrochloride],normalised cell viability,treatment time: 3 days,0.988 ± 0.031
same,normalised cell viability,treatment time: 6 days,0.988 ± 0.078
c1ccc2c(c1)Nc1ccccc1S2 [Phenothiazine],normalised cell viability,treatment time: 3 days,0.989 ± 0.017
same,normalised cell viability,treatment time: 6 days,1.07 ± 0.058
O=c1c2ccccc2[se]n1-c1ccccc1 [Ebselen],normalised cell viability,treatment time: 3 days,1.12 ± 0.036
same,normalised cell viability,treatment time: 6 days,1.05 ± 0.14
CC(=O)O[C@H]1C[C@@H]2CC[C@@H]3[C@H](CC[C@@]4(C)[C@H]3C[C@H]([N+]3(C)CCCCC3)[C@@H]4OC(C)=O)[C@@]2(C)C[C@@H]1[N+]1(C)CCCCC1 [Pancuronium bromide],normalised cell viability,treatment time: 3 days,1.02 ± 0.037
same,normalised cell viability,treatment time: 6 days,1.06 ± 0.063
C=CCN1CC[C@]23c4c5ccc(O)c4O[C@H]2C(=O)CC[C@@]3(O)[C@H]1C5 [Naloxone hydrochloride],normalised cell viability,treatment time: 3 days,1.06 ± 0.028
same,normalised cell viability,treatment time: 6 days,1.07 ± 0.066
COP(=O)(OC)C(O)C(Cl)(Cl)Cl (stereo unspecified) [Trichlorfon],normalised cell viability,treatment time: 3 days,1.01 ± 0.014
same,normalised cell viability,treatment time: 6 days,0.968 ± 0.025
C[C@]12C[C@H]3S[C@H]3C[C@@H]1CC[C@@H]1[C@@H]2CC[C@]2(C)[C@@H](O)CC[C@@H]12 [Epitiostanol],normalised cell viability,treatment time: 3 days,1.02 ± 0.019
same,normalised cell viability,treatment time: 6 days,1.05 ± 0.022
CCCC(C)C1(CC)C(=O)NC(=O)NC1=O (stereo unspecified) [Pentobarbital],normalised cell viability,treatment time: 3 days,0.905 ± 0.023
same,normalised cell viability,treatment time: 6 days,0.954 ± 0.028
C[C@]12CCC(=O)C=C1C=C[C@@H]1[C@@H]2CC[C@@]2(C)[C@H]1CC[C@@]2(O)CCC(=O)O [Canrenoic acid potassium salt],normalised cell viability,treatment time: 3 days,1.06 ± 0.059
same,normalised cell viability,treatment time: 6 days,1.06 ± 0.022
C(#CCN1CCCC1)CN1CCCC1 [Tremorine dihydrochloride],normalised cell viability,treatment time: 3 days,1.14 ± 0.045
same,normalised cell viability,treatment time: 6 days,1.09 ± 0.1
CC(C)c1cccc(C(C)C)c1O [Propofol],normalised cell viability,treatment time: 3 days,1.01 ± 0.042
same,normalised cell viability,treatment time: 6 days,1.07 ± 0.044
C[C@]12CC[C@H](O)C[C@H]1CC[C@@H]1[C@@H]2CC[C@]2(C)[C@@H](C3=CC(=O)OC3)CC[C@]12O [Digitoxigenin],normalised cell viability,treatment time: 3 days,1.06 ± 0.021
same,normalised cell viability,treatment time: 6 days,1.06 ± 0.018
Oc1ccc2c3c1O[C@H]1[C@@H](O)CC[C@@]4(O)[C@@H](C2)N(CC2CCC2)CC[C@]314 [Nalbuphine hydrochloride],normalised cell viability,treatment time: 3 days,1.19 ± 0.029
same,normalised cell viability,treatment time: 6 days,1.09 ± 0.052
CC(=O)O[C@H]1CC[C@@]2(C)C(=CC[C@@H]3[C@@H]2CC[C@]2(C)C(=O)CC[C@@H]32)C1 [Dehydroisoandosterone 3-acetate],normalised cell viability,treatment time: 3 days,1.02 ± 0.014
same,normalised cell viability,treatment time: 6 days,1 ± 0.12
O=C(NCNC(=O)NC1C(=O)NC(=O)N1CO)NC1C(=O)NC(=O)N1CO (stereo unspecified) [Imidurea],normalised cell viability,treatment time: 3 days,1.02 ± 0.062
same,normalised cell viability,treatment time: 6 days,1.05 ± 0.056
CN1C[C@H](CNC(=O)OCc2ccccc2)C[C@@H]2c3cccc4c3c(cn4C)C[C@H]21 [Metergoline],normalised cell viability,treatment time: 3 days,0.166 ± 0.008
same,normalised cell viability,treatment time: 6 days,0.213 ± 0.038
COc1cc2c(c(OC)c1OC)-c1ccc(OC)c(=O)cc1[C@@H](NC(C)=O)CC2 [Colchicine],normalised cell viability,treatment time: 3 days,0.158 ± 0.0081
same,normalised cell viability,treatment time: 6 days,0.16 ± 0.003
CC[N+]1(C)CCCC(OC(=O)C(O)(c2ccccc2)c2ccccc2)C1 (stereo unspecified) [Pipenzolate bromide],normalised cell viability,treatment time: 3 days,1.09 ± 0.049
same,normalised cell viability,treatment time: 6 days,1.06 ± 0.013
